Test results published in PubChem BioAssay AID2675 (National Center for Advancing Translational Sciences (NCATS), 2010).
Hit rate of the full screen: of about 280,000 compounds, about 100 (0.036%) were called active. The shares of active, inactive and inconclusive entries below differ from those in the screen. The call rests on the fitted dose curve; in most records, active means well fitted inhibition curve with a large enough effect in the signal ratio, with a control signal flat (not every such curve was filed as active); inconclusive means small, poorly fitted or top-dose-only effect, or effect the other way, or a change in a side signal; inactive means no such curve, though single readings can be large or run the other way; the % refers to the signal ratio. Potencies beside an inconclusive call are fits to weak or partial responses and may not hold up. A note “side channel” means that the fit belongs to a control or component signal, not to the main read-out.

biological target: Muscleblind-like protein 1 (Homo sapiens) (UniProt Q9NR56); test: qHTS Assay for Inhibitors of MBNL1-poly(CUG) RNA binding; conditions: TR-FRET MBNL1-His/biotin-(CUG)12 binding, 665/545 ratio; activity change, negative = inhibition: at 57.5 µM (top of the series)
UniProt Q9NR56, sequence (Q9NR56 whole entry, looked up): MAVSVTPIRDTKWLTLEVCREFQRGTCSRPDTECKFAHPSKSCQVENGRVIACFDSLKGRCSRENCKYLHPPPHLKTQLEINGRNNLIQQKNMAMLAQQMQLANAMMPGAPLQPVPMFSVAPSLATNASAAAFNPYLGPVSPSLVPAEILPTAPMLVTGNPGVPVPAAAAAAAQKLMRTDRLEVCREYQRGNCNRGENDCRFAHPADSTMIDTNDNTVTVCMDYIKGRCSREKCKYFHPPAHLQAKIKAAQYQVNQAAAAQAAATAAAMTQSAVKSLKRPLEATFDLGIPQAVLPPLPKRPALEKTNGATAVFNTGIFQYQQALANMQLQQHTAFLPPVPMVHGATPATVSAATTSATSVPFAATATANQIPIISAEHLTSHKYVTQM
Outline: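 Inhibition of protein-RNA binding appears as loss of TR-FRET between terbium anti-His antibody on MBNL1-His and streptavidin-XL665 on biotin-(CUG)12. Activity is normalized to buffer-only and uninhibited-complex controls.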
On the % scale 0 is the no-effect control and ±100 the full control effect; potency means the concentration at half of the fitted maximal effect; tags describe the fitted curve by direction and shape or compound fluorescence and quenching.

SMILES	activity change, negative = inhibition	Potency
COc1ccc(NC(=O)c2cc3sccc3n2Cc2ccc(F)cc2)cc1OC	inactive: -2.59%	–
Nc1c(C(=O)NCC2CCCO2)c2nc3ccccc3nc2n1-c1ccccc1 (stereo not drawn)	–	inconclusive: 15.8 µM [quencher, partial curve]
Clc1ccccc1/C=N/Nc1cc(N2CCOCC2)ncn1	inactive: -3.71%	–
O=C(NCCc1ccccc1)C1CCCN(S(=O)(=O)c2cccs2)C1 (stereo not drawn)	–	inconclusive: 1.41 µM [fluorescent, side channel, partial curve]
O=C1c2ccccc2-c2cccc(C(=O)N3CCN(C(=O)c4ccccc4)CC3)c21	–	inconclusive: 7.94 µM [quencher, side channel, partial curve]
CCOc1ccc(NC(=O)C2CCCN(C(=O)NCc3ccccc3)C2)cc1 (stereo not drawn)	–	inconclusive: 79.4 µM [inhibitor, single point]
C=CCN1C(=O)NC(c2ccccc2)(C(F)(F)F)S/C1=C(\C#N)c1nnc(N2CCOCC2)n1-c1ccccc1 (stereo not drawn)	inactive: -13.4%	–
COc1cc(NC(=O)c2ccc([N+](=O)[O-])cc2)ccc1NC(=O)C(C)C	–	inconclusive: 10 µM [quencher, side channel, partial curve]
O=C(O)c1cc(-c2ccccc2)nc2ccccc12	–	inconclusive: 251 µM [inhibitor, partial curve]
Cc1cccc(CCNC(=O)CC2C(=O)NCCN2Cc2ccc(F)c(F)c2)n1 (stereo not drawn)	–	inconclusive: 7.94 µM [inhibitor, single point]
CC(C1CC2CCC1C2)n1c(-c2cccs2)n[nH]c1=S (stereo not drawn)	inactive: 12%	–
Clc1ccc(-c2n[nH]c3c2CCC3)cc1Cl	inactive: -0.527%	–
CCNc1nc(NCC)n2c(SC(C(=O)Nc3cc(C)ccc3OC)c3ccccc3)nnc2n1 (stereo not drawn)	–	inconclusive: 3.98 µM [quencher, side channel, single point]
CNC(=S)NNC(=O)c1oc2nc(-c3ccccc3)cc(-c3ccco3)c2c1N	–	inconclusive: 11.2 µM [quencher, side channel, partial curve]
O=C1c2cccc3c(Nc4ccccc4Cl)c([N+](=O)[O-])cc(c23)C(=O)N1CCO	–	inconclusive: 10 µM [quencher, side channel, partial curve]
O=[N+]([O-])c1cccc(/C=N/n2cnnc2)c1	–	inconclusive: 11.2 µM [quencher, side channel, partial curve]
CC(=O)c1cccc(NC(=O)CN2C(=O)c3cccnc3Oc3ccc(Cl)cc32)c1	inactive: 7.23%	–
CN(C)c1ccc(N2C(=NC(=O)c3ccccc3)SC3CS(=O)(=O)CC32)cc1 (stereo not drawn)	–	inconclusive: 31.6 µM [fluorescent, side channel, single point]
CCN(CC)S(=O)(=O)c1ccc(NC(=O)c2cccc3c2C(=O)N(CCOC)C3)cc1	–	inconclusive: 3.16 µM [fluorescent, side channel, partial curve]

SMILES	activity change, negative = inhibition	Potency
CN(C)N=Nc1ccc(S(=O)(=O)NC(=O)Cc2ccccc2)cc1	–	inconclusive: 39.8 µM [quencher, side channel, single point]
NC(=O)CSc1nnc2ccc(-c3ccc(F)cc3)nn12	–	inconclusive: 14.1 µM [quencher, side channel, partial curve]
CCN1C(=O)c2ccc(C(=O)Nc3ccc(O)cc3C)cc2C1=O	–	inconclusive: 12.6 µM [quencher, side channel, partial curve]
CC[C@H](C)C1NC(=O)[C@H](CC(=O)O)NC(=O)c2cc([N+](=O)[O-])cc(I)c2NCCC(C(N)=O)NC1=O (stereo partly drawn)	–	inconclusive: 12.6 µM [quencher, side channel, partial curve]
COc1cc(C(=S)N2CCCC2)cc(OC)c1OS(=O)(=O)c1ccc(NC(C)=O)cc1	inactive: -21.3%	–
COC(=O)CCN(C(=O)c1ccc(N2CCCC2)c([N+](=O)[O-])c1)c1ccccn1	–	inconclusive: 39.8 µM [quencher, single point]
O=C(CNC(=O)c1cccs1)c1ccc([N+](=O)[O-])cc1	–	inconclusive: 11.2 µM [quencher, side channel, partial curve]
Cc1cc(C#N)c(C)c(SCc2[nH]nc3c2C(c2ccccc2)C(C#N)=C(N)O3)n1 (stereo not drawn)	–	inconclusive: 3.16 µM [quencher, side channel, full curve, poor fit]
CNC(=O)c1ccc2nc(NC(C)=O)sc2c1	–	inconclusive: 39.8 µM [quencher, side channel, single point]
CC(=O)OCc1c(C(F)(F)F)nn(C)c1Oc1ccccc1	–	inconclusive: 3.55 µM [fluorescent, side channel, partial curve]
COc1nccnc1NS(=O)(=O)c1ccc(NS(=O)(=O)c2ccc(NC(C)=O)cc2)cc1	–	inconclusive: 100 µM [inhibitor, partial curve]
COc1ccc(/C=C/C(=O)Nc2nonc2NC(C)=O)cc1	–	inconclusive: 10 µM [quencher, side channel, partial curve]
COc1cc(Nc2c3c(nc4ccccc24)CCC3)cc(OC)c1OC	inactive: 4.13%	–
Nc1ccc(C(=O)OCC(=O)N2CCOCC2)cc1[N+](=O)[O-]	–	inconclusive: 15.8 µM [quencher, side channel, partial curve, poor fit]
c1ccc(-c2nnc(-c3ccccn3)s2)nc1	inactive: 5.39%	–
COC(=O)c1ccccc1S(=O)(=O)N1Cc2cc([N+](=O)[O-])ccc2Oc2ccccc21	–	inconclusive: 25.1 µM [quencher, side channel, partial curve]
N#CC1=C(N)Oc2cc(O)c(Cl)cc2C1c1cccnc1 (stereo not drawn)	–	inconclusive: 17.8 µM [quencher, side channel, partial curve]
CCCCC1=CC2=CC(=O)C(C)(OC(=O)c3cnc4ccccc4n3)C(=O)C2=CO1 (stereo not drawn)	–	inconclusive: 31.6 µM [quencher, side channel, single point]
Cc1cc(C)nc(NC(=O)c2ccc(Cl)cc2[N+](=O)[O-])c1	–	inconclusive: 8.91 µM [quencher, side channel, partial curve]
